Here are results for 39 compounds from the antibiotic and cytotoxicity screens of Wong et al. (2023).

The structures appear in SMILES notation. The list shows a part of the results.

The subject of the first assay is HepG2. Description: cytotoxicity call (relative viability < 0.9). The following applies: 10 µM.
Regarding `CCS(=O)(=O)N[C@@H]1CC[C@@H](CC(=O)NCC2CC2)O[C@H]1CO`, the cytotoxicity call is “inactive”.

In the case of `COc1ccc(S(=O)(=O)Nc2ccc3c(c2)C(=O)N([C@H](C)CO)C[C@@H](C)[C@@H](CN(C)Cc2ccc(-c4ccccc4)cc2)O3)cc1`, the cytotoxicity call was “active”.

Take `Cc1ccc(S(=O)(=O)N(C)C[C@H]2OCCCC[C@@H](C)Oc3ccc(NC(=O)CCC(F)(F)F)cc3C(=O)N([C@H](C)CO)C[C@H]2C)cc1`: the cytotoxicity call is “inactive”.

In the case of `O=C(C[C@@H]1CC[C@H]2[C@@H](COC[C@H](O)CN2C(=O)c2ccncc2)O1)NC1CCC1`, the cytotoxicity call was “inactive”.

`CC(C)NC(=O)N(C)C[C@H]1Oc2ccc(NC(=O)c3ccncc3)cc2CC(=O)N([C@@H](C)CO)C[C@H]1C`: the cytotoxicity call was “inactive”.

For the compound `C[C@@H]1CCCCO[C@@H](CN(C)S(=O)(=O)c2ccc(Cl)cc2)[C@H](C)CN([C@@H](C)CO)C(=O)c2cc(NC(=O)Nc3ccccc3)ccc2O1`, the cytotoxicity call is “inactive”.

As to `COc1ccc(NC(=O)N(C)C[C@H]2OCCCC[C@@H](C)Oc3ccc(NS(=O)(=O)c4c(C)noc4C)cc3C(=O)N([C@H](C)CO)C[C@@H]2C)cc1`, the cytotoxicity call was “inactive”.

For `COc1ccc(CN(C)C[C@H]2OCCCC[C@H](C)Oc3ccc(NC(=O)Cc4ccccc4)cc3C(=O)N([C@H](C)CO)C[C@@H]2C)cc1`, the cytotoxicity call is “inactive”.

The next assay relates to S. aureus RN4220. Nature of the assay: growth inhibition call (relative growth <= 0.2). The following applies: 50 µM.
For `C[C@@H]1CCCCO[C@H](CN(C)Cc2ccc(C(=O)O)cc2)[C@H](C)CN([C@H](C)CO)C(=O)c2cc(NC(=O)Nc3ccc(C(F)(F)F)cc3)ccc2O1`, the growth inhibition call was “inactive”.

`COc1ccc(NC(=O)Nc2ccc3c(c2)C(=O)N([C@@H](C)CO)C[C@H](C)[C@H](CN(C)C(=O)C2CCCCC2)OCCCC[C@H](C)O3)cc1`: the growth inhibition call was “inactive”.

With `COCCCNC(=O)[C@@]1(Sc2ccc(C)cc2)CC(=O)N(Cc2cc(C(F)(F)F)cc(C(F)(F)F)c2)[C@@H]1c1ccc(CO)cc1`, the growth inhibition call is “inactive”.

On to `COc1ccc(CN(C)C[C@H]2Oc3ccc(NS(=O)(=O)c4cn(C)cn4)cc3C(=O)N([C@@H](C)CO)C[C@@H]2C)cc1`, for which the growth inhibition call was “inactive”.

For the compound `CCS(=O)(=O)N1C[C@]2(CN(C2)S(=O)(=O)c2cn(cn2)C)c2c(n(c3cc(ccc23)OC)C)[C@@H]1CO`, the growth inhibition call was “inactive”.

In the case of `CCCC#Cc1ccc2c(c1)O[C@@H](CN(C)C(=O)c1cnccn1)[C@H](C)CN([C@@H](C)CO)S2(=O)=O`, the growth inhibition call is “inactive”.

Consider `CS(=O)(=O)Nc1ccc2c(c1)[C@@H]1C[C@@H](CC(=O)NCc3ccc(-c4ccccc4)cc3)O[C@H](CO)[C@@H]1O2`, for which the growth inhibition call is “inactive”.

With `COc1ccc(S(=O)(=O)Nc2ccc3c(c2)C(=O)N([C@@H](C)CO)C[C@H](C)[C@@H](CN(C)Cc2ccncc2)O3)cc1`, the growth inhibition call was “inactive”.

Take `Cc1ccc(S(=O)(=O)Nc2ccc3c(c2)CC(=O)N([C@H](C)CO)C[C@@H](C)[C@@H](CN(C)Cc2ccc(-c4ccccc4)cc2)O3)cc1`: the growth inhibition call was “inactive”.

Consider `Cc1cc(C)c(NC(=O)CN(CC(=O)O)CC(=O)O)c(C)c1Br`, for which the growth inhibition call is “inactive”.

Turning to `C[C@@H]1CN([C@H](C)CO)C(=O)c2cc(NC(=O)Nc3ccc4c(c3)OCO4)ccc2O[C@H]1CN(C)C(=O)Nc1cccc2ccccc12`, the growth inhibition call is “inactive”.

As for `C[C@@H]1CN([C@@H](C)CO)C(=O)Cc2cc(NC(=O)c3ccncc3)ccc2O[C@H]1CN(C)S(C)(=O)=O`, the growth inhibition call is “inactive”.

Consider `C#CCCCCCCCCCCCC(O)CC(O)CO` (configuration not stated), for which the growth inhibition call is “inactive”.

Take `[O-][NH2+]N1CCCC1`: the growth inhibition call was “inactive”.

As for `C[C@@H]1CN([C@@H](C)CO)C(=O)c2cc(NS(=O)(=O)c3ccccc3)ccc2O[C@@H](C)CCCCO[C@@H]1CN(C)Cc1ccc(C(=O)O)cc1`, the growth inhibition call is “inactive”.

`COc1ccc(-c2cc(=O)c3c(O)cc(OC)c(OC)c3o2)c(OC)c1`: the growth inhibition call is “inactive”.

Take `CC(=O)N[C@H]1CSSC[C@@H](C(N)=O)NC(=O)[C@H](C(C)C)NC(=O)[C@H](C)NC(=O)[C@H](Cc2cnc[nH]2)NC1=O`: the growth inhibition call is “inactive”.

On to `CC(C)NC(=O)N(C)C[C@@H]1Oc2ccc(NC(=O)CCC(F)(F)F)cc2C(=O)N([C@H](C)CO)C[C@@H]1C`, for which the growth inhibition call was “inactive”.

For `C[C@@H]1CCCCO[C@@H](CN(C)C(=O)Nc2ccc(F)cc2)[C@@H](C)CN([C@@H](C)CO)C(=O)c2cc(NC(=O)Cc3ccccc3)ccc2O1`, the growth inhibition call is “inactive”.

In the case of `Cc1ccc(S(=O)(=O)Nc2cccc3c2O[C@@H](CN(C)S(=O)(=O)c2cn(C)cn2)[C@@H](C)CN([C@H](C)CO)C3=O)cc1`, the growth inhibition call was “inactive”.

With `C[C@@H]1CN([C@H](C)CO)C(=O)c2cccc(NC(=O)c3cnccn3)c2O[C@@H]1CN(C)S(=O)(=O)c1ccccc1`, the growth inhibition call is “inactive”.

As to `O=c1cc(-c2ccccc2O)oc2cc(O)ccc12`, the growth inhibition call was “inactive”.

In the case of `CC/C(=C\c1ccccc1)C(=O)O`, the growth inhibition call was “inactive”.

With `COc1cccc(NC(=O)C[C@@H]2CC[C@@H]3[C@H](COc4ccc(NC(=O)C5CCOCC5)cc4C(=O)N3C)O2)c1`, the growth inhibition call is “inactive”.

For the compound `C[C@@H]1CCCCO[C@@H](CN(C)Cc2ccc(Cl)c(Cl)c2)[C@H](C)CN([C@H](C)CO)C(=O)c2cc(NC(=O)Cc3ccccc3)ccc2O1`, the growth inhibition call was “inactive”.

Regarding `COc1ccccc1CNC(=O)C[C@H]1CC[C@H]2[C@@H](COC[C@@H](O)CN2C(=O)Nc2ccc(F)cc2)O1`, the growth inhibition call is “inactive”.

In the case of `Cc1noc(C)c1S(=O)(=O)N(C)C[C@@H]1OCCCC[C@H](C)Oc2ccc(N(C)C)cc2C(=O)N([C@H](C)CO)C[C@H]1C`, the growth inhibition call was “inactive”.

`Cc1ccc(S(=O)(=O)N(C)C[C@H]2Oc3c(NC(=O)NC(C)C)cccc3C(=O)N([C@@H](C)CO)C[C@H]2C)cc1`: the growth inhibition call was “inactive”.

For the compound `C[C@H]1CN([C@@H](C)CO)C(=O)c2cc(/C=C/c3ccccc3)cnc2O[C@H]1CN(C)C(=O)Nc1ccc(C(F)(F)F)cc1`, the growth inhibition call was “inactive”.

As to `OCc1cc2c(F)cccc2s1`, the growth inhibition call is “inactive”.

With `O=C(C[C@H]1C[C@H]2c3cc(NC(=O)Nc4ccccc4F)ccc3O[C@H]2[C@@H](CO)O1)NCc1ccc(Oc2ccccc2)cc1`, the growth inhibition call was “inactive”.

In the case of `CCS(=O)(=O)N[C@@H]1CC[C@@H](CC(=O)NCC2CC2)O[C@H]1CO`, the growth inhibition call was “inactive”.

For the compound `COc1ccc(S(=O)(=O)Nc2ccc3c(c2)C(=O)N([C@H](C)CO)C[C@@H](C)[C@@H](CN(C)Cc2ccc(-c4ccccc4)cc2)O3)cc1`, the growth inhibition call was “inactive”.

On to `Cc1ccc(S(=O)(=O)N(C)C[C@H]2OCCCC[C@@H](C)Oc3ccc(NC(=O)CCC(F)(F)F)cc3C(=O)N([C@H](C)CO)C[C@H]2C)cc1`, for which the growth inhibition call is “inactive”.

For the compound `O=C(C[C@@H]1CC[C@H]2[C@@H](COC[C@H](O)CN2C(=O)c2ccncc2)O1)NC1CCC1`, the growth inhibition call is “inactive”.

As to `CC(C)NC(=O)N(C)C[C@H]1Oc2ccc(NC(=O)c3ccncc3)cc2CC(=O)N([C@@H](C)CO)C[C@H]1C`, the growth inhibition call is “inactive”.

`C[C@@H]1CCCCO[C@@H](CN(C)S(=O)(=O)c2ccc(Cl)cc2)[C@H](C)CN([C@@H](C)CO)C(=O)c2cc(NC(=O)Nc3ccccc3)ccc2O1`: the growth inhibition call was “inactive”.

As to `COc1ccc(NC(=O)N(C)C[C@H]2OCCCC[C@@H](C)Oc3ccc(NS(=O)(=O)c4c(C)noc4C)cc3C(=O)N([C@H](C)CO)C[C@@H]2C)cc1`, the growth inhibition call is “inactive”.

Consider `COc1ccc(CN(C)C[C@H]2OCCCC[C@H](C)Oc3ccc(NC(=O)Cc4ccccc4)cc3C(=O)N([C@H](C)CO)C[C@@H]2C)cc1`, for which the growth inhibition call is “inactive”.
